Measurements published in patent publication US7517874B2 (priority 2007, dated 2009).
pEC50: −log10 of the molar value. Like-named read-outs stand apart in the source and are kept apart here.

Target: human CB2 receptor (hCB2) (Homo sapiens, UniProt P34972)
Assay: cell-based
Assay type: cell-based
Conditions: for +/− HCB2: agonist or inverse agonist at hCB2; for EC50: groups >100 nM-10 μM and >10 μM, cAMP, CHO-K1 hCB2, read-out: EC50 HCB2

Chain of human CB2 receptor (hCB2) (P34972 whole entry): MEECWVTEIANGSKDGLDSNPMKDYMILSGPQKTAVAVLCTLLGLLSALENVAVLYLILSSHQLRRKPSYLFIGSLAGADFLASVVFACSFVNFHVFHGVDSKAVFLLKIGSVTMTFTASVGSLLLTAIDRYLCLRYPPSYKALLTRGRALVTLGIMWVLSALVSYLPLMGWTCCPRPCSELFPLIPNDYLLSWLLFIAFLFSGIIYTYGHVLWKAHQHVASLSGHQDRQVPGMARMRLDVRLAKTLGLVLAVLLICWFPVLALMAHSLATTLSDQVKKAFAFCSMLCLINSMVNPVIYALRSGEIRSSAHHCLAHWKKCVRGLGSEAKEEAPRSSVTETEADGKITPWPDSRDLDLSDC

Compound | +/− HCB2 | pEC50 | also measured
CNC(=O)[C@@H](NC(=O)c1nc(-c2cc(F)cc(OC)c2)n2c1CN(C)CCC2)C(C)(C)C [Compound 384, (S)-N-(3,3-dimethyl-1-(methylamino)-1-oxobutan-2-yl)-3-(3-fluoro-5-methoxyphenyl)-8-methyl-6,7,8,9-tetrahydro-5H-imidazo[1,5-a][1,4]diazepine-1-carboxamide] | + |  | 
CNC(=O)[C@@H](NC(=O)c1nc(-c2ccccc2)n2c1CN(Cc1nccs1)CC2)C(C)(C)C [Compound 72, (S)-N-(3,3-dimethyl-1-(methylamino)-1-oxobutan-2-yl)-3-phenyl-7-(thiazol-2-ylmethyl)-5,6,7,8-tetrahydroimidazo[1,5-a]pyrazine-1-carboxamide] | + |  | 
O=C(NC1CCCCC1)c1nc(-c2ccccc2)n2c1CN(C(=O)c1ccoc1)CC2 [Compound 138, N-cyclohexyl-7-(furan-3-carbonyl)-3-phenyl-5,6,7,8-tetrahydroimidazo[1,5-a]pyrazine-1-carboxamide] |  |  | EC50: > 10000 nM
CCN1CCCn2c(-c3ccccc3)nc(C(=O)N[C@H](c3nc(C)no3)C(C)(C)C)c2C1 [Compound 524, (S)-N-(2,2-dimethyl-1-(3-methyl-1,2,4-oxadiazol-5-yl)propyl)-8-ethyl-3-phenyl-6,7,8,9-tetrahydro-5H-imidazo[1,5-a][1,4]diazepine-1-carboxamide] | + |  | 
CNC(=O)[C@@H](NC(=O)c1nc(-c2nccs2)n2c1CN(C)CC2)C(C)(C)C [Compound 297, (S)-N-(3,3-dimethyl-1-(methylamino)-1-oxobutan-2-yl)-7-methyl-3-(thiazol-2-yl)-5,6,7,8-tetrahydroimidazo[1,5-a]pyrazine-1-carboxamide] |  | < 5.00 | 
CNC(=O)[C@@H](NC(=O)c1nc(-c2ccc(C)c(Cl)c2)n2c1CN(C)CCC2)C(C)(C)C [Compound 334, (S)-3-(3-chloro-4-methylphenyl)-N-(3,3-dimethyl-1-(methylamino)-1-oxobutan-2-yl)-8-methyl-6,7,8,9-tetrahydro-5H-imidazo[1,5-a][1,4]diazepine-1-carboxamide] | + |  | 
CNC(=O)[C@@H](NC(=O)c1nc(-c2cccc(F)c2)n2c1CNCC2)C(C)(C)C [Compound 4, (S)-N-(3,3-dimethyl-1-(methylamino)-1-oxobutan-2-yl)-3-(3-fluorophenyl)-5,6,7,8-tetrahydroimidazo[1,5-a]pyrazine-1-carboxamide] | + |  | 
CNC(=O)[C@@H](NC(=O)c1nc(-c2ccc(C)o2)n2c1CN(C)CCC2)C(C)(C)C [Compound 443, (S)-N-(3,3-dimethyl-1-(methylamino)-1-oxobutan-2-yl)-8-methyl-3-(5-methylfuran-2-yl)-6,7,8,9-tetrahydro-5H-imidazo[1,5-a][1,4]diazepine-1-carboxamide] |  | < 5.00 | 
CC(C)(C)OC(=O)N1CCn2c(-c3ccccc3)nc(C(=O)NCC3CCOCC3)c2C1 [Compound 38, tert-butyl 3-phenyl-1-((tetrahydro-2H-pyran-4-yl)methylcarbamoyl)-5,6-dihydroimidazo[1,5-a]pyrazine-7(8H)-carboxylate] | − |  | 
CC(C)CN1CCn2c(-c3ccccc3)nc(C(=O)N[C@H](C)C3CCCCC3)c2C1 [Compound 163, (R)-N-(1-cyclohexylethyl)-7-isobutyl-3-phenyl-5,6,7,8-tetrahydroimidazo[1,5-a]pyrazine-1-carboxamide] | + |  | 
CNC(=O)[C@@H](NC(=O)c1nc(-c2ccccc2)n2c1CN(S(=O)(=O)C1CC1)CC2)C(C)(C)C [Compound 100, (S)-7-(cyclopropylsulfonyl)-N-(3,3-dimethyl-1-(methylamino)-1-oxobutan-2-yl)-3-phenyl-5,6,7,8-tetrahydroimidazo[1,5-a]pyrazine-1-carboxamide] |  | < 5.00 | 
CN1CCn2c(-c3ccc(Cl)cc3F)nc(C(=O)N3CCC(n4c(=O)[nH]c5ccccc54)CC3)c2C1 [Compound 215, 1-(1-(3-(4-chloro-2-fluorophenyl)-7-methyl-5,6,7,8-tetrahydroimidazo[1,5-a]pyrazine-1-carbonyl)piperidin-4-yl)-1H-benzo[d]imidazol-2(3H)-one] |  |  | EC50: > 10000 nM
CN1CCn2c(-c3ccccc3)nc(C(=O)N[C@H](C(=O)O)C(C)(C)C)c2C1 [Compound 281, (S)-3,3-dimethyl-2-(7-methyl-3-phenyl-5,6,7,8-tetrahydroimidazo[1,5-a]pyrazine-1-carboxamido)butanoic acid] |  | < 5.00 | 
Cc1noc([C@@H](NC(=O)c2nc(-c3ccccc3)n3c2CN(CC(C)C)CC3)C(C)(C)C)n1 [Compound 90, (S)-N-(2,2-dimethyl-1-(3-methyl-1,2,4-oxadiazol-5-yl)propyl)-7-isobutyl-3-phenyl-5,6,7,8-tetrahydroimidazo[1,5-a]pyrazine-1-carboxamide] |  | < 5.00 | 
CNC(=O)[C@@H](NC(=O)c1nc(-c2ccoc2)n2c1CN(C)CCC2)C(C)(C)C [Compound 440, (S)-N-(3,3-dimethyl-1-(methylamino)-1-oxobutan-2-yl)-3-(furan-3-yl)-8-methyl-6,7,8,9-tetrahydro-5H-imidazo[1,5-a][1,4]diazepine-1-carboxamide] | + |  | 
CNC(=O)[C@@H](NC(=O)c1nc(-c2ccc(Cl)cc2F)n2c1CN(C1CCN(C(C)=O)CC1)CCC2)C(C)(C)C [Compound 527, (S)-8-(1-acetylpiperidin-4-yl)-3-(4-chloro-2-fluorophenyl)-N-(3 3-dimethyl-1-(methylamino)-1-oxobutan-2-yl)-6,7,8,9-tetrahydro-5H-imidazo[1,5-a][1,4]diazepine-1-carboxamide] |  | < 5.00 | 
CC(C)(C)[C@@H](CO)NC(=O)c1nc(-c2ccccc2)n2c1CNCC2 [Compound 22, (S)-N-(1-hydroxy-3,3-dimethylbutan-2-yl)-3-phenyl-5,6,7,8-tetrahydroimidazo[1,5-a]pyrazine-1-carboxamide] |  | < 5.00 | 
Cc1noc([C@@H](NC(=O)c2nc(-c3ccccc3)n3c2CN(C(C)C)CC3)C(C)(C)C)n1 [Compound 89, (S)-N-(2,2-dimethyl-1-(3-methyl-1,2,4-oxadiazol-5-yl)propyl)-7-isopropyl-3-phenyl-5,6,7,8-tetrahydroimidazo[1,5-a]pyrazine-1-carboxamide] |  | < 5.00 | 
O=C(NN1CCCCC1)c1nc(-c2ccccc2)n2c1CNCC2 [Compound 44, 3-phenyl-N-(piperidin-1-yl)-5,6,7,8-tetrahydroimidazo[1,5-a]pyrazine-1-carboxamide] |  | < 5.00 | 
CNC(=O)[C@@H](NC(=O)c1nc(-c2ccccc2)n2c1CN(C1CC1)CCC2)C(C)(C)C [Compound 199, (S)-8-cyclopropyl-N-(3,3-dimethyl-1-(methylamino)-1-oxobutan-2-yl)-3-phenyl-6,7,8,9-tetrahydro-5H-imidazo[1,5-a][1,4]diazepine-1-carboxamide] | + |  | 
CNC(=O)[C@@H](NC(=O)c1nc(-c2ccc(-n3cccn3)cc2)n2c1CN(C)CCC2)C(C)(C)C [Compound 390, (S)-3-(4-(1H-pyrazol-1-yl)phenyl)-N-(3,3-dimethyl-1-(methylamino)-1-oxobutan-2-yl)-8-methyl-6,7,8,9-tetrahydro-5H-imidazo[1,5-a][1,4]diazepine-1-carboxamide] |  | < 5.00 | 
CNC(=O)[C@@H](NC(=O)c1nc(-c2ccc(F)cc2Cl)n2c1CN(C)CCC2)C(C)(C)C [Compound 337, (S)-3-(2-chloro-4-fluorophenyl)-N-(3,3-dimethyl-1-(methylamino)-1-oxobutan-2-yl)-8-methyl-6,7,8,9-tetrahydro-5H-imidazo[1,5-a][1,4]diazepine-1-carboxamide] | + |  | 
CC(C)CN1CCn2c(-c3ccccc3)nc(C(=O)N[C@@H](C)C(C)(C)C)c2C1 [Compound 53, (S)-N-(3,3-dimethylbutan-2-yl)-7-isobutyl-3-phenyl-5,6,7,8-tetrahydroimidazo[1,5-a]pyrazine-1-carboxamide] | + |  | 
CNC(=O)C(NC(=O)c1nc(-c2ccccc2)n2c1CNCCC2)C(C)(C)F (centres unmarked) [Compound 604, N-(3-fluoro-3-methyl-1-(methylamino)-1-oxobutan-2-yl)-3-phenyl-6,7,8,9-tetrahydro-5H-imidazo[1,5-a][1,4]diazepine-1-carboxamide] | + |  | 
CNC(=O)[C@@H](NC(=O)c1nc(-c2c(C)noc2C)n2c1CN(C)CCC2)C(C)(C)C [Compound 442, N-((S)-3,3-dimethyl-1-(methylamino)-1-oxobutan-2-yl)-3-(3,5-dimethylisoxazol-4-yl)-8-methyl-6,7,8,9-tetrahydro-5H-imidazo[1,5-a][1,4]diazepine-1-carboxamide] | + |  | 
C/C=C/c1nc(C(=O)N[C@H](C(=O)NC)C(C)(C)C)c2n1CCCN(C)C2 [Compound 376, (S,E)-N-(3,3-dimethyl-1-(methylamino)-1-oxobutan-2-yl)-8-methyl-3-(prop-1-enyl)-6,7,8,9-tetrahydro-5H-imidazo[1,5-a][1,4]diazepine-1-carboxamide] | + |  | 
CNC(=O)[C@H](CC(C)C)NC(=O)c1nc(C2CCCCC2)n2c1CN(C)CCC2 [Compound 540, (S)-3-cyclohexyl-8-methyl-N-(4-methyl1-1-(methylamino)-1-oxopentan-2-yl)-6,7,8,9-tetrahydro-5H-imidazo[1,5-a][1,4]diazepine-1-carboxamide] | + |  | 
CNC(=O)[C@@H](NC(=O)c1nc(C(C)=C(C)C)n2c1CN(C)CCC2)C(C)(C)C [Compound 454, (S)-N-(3,3-dimethyl-1-(methylamino)-1-oxobutan-2-yl)-8-methyl-3-(3-methylbut-2-en-2-yl)-6,7,8,9-tetrahydro-5H-imidazo[1,5-a][1,4]diazepine-1-carboxamide] | + |  | 
CN1CCCn2c(-c3ccc(F)c(Cl)c3)nc(C(=O)N[C@@H](CC(C)(C)C)C(N)=O)c2C1 [Compound 587, (S)-N-(1-amino-4,4-dimethyl-1-oxopentan-2-yl)-3-(3-chloro-4-fluorophenyl)-8-methyl-6,7,8,9-tetrahydro-5H-imidazo[1,5-a][1,4]diazepine-1-carboxamide] | + |  | 
